# In PubChem BioAssay AID1347073 (National Center for Advancing Translational Sciences (NCATS), 2019):
# About 200 (0.44%) of roughly 45,000 compounds were called active. About 7% were inconclusive and are not listed. Calls come from the whole dose curve; as a rule, active = well fitted activation curve with a large enough effect; inconclusive = small, poorly fitted or top-dose-only effect; inactive = no such curve, though single readings can be large or run the other way. The list shows a part of the results.
# Assay: qHTS of TDP-43 Inhibitors: NCGC Sytravon Library Screen; note: 0% is about no effect; nearly all actives have a fitted effect of over 55% in size
# Details: yeast TDP-43 toxicity rescue, BacTiter-Glo growth, 24 h; series mostly up to 46.1 µM; growth rescue (activation): at the top concentration
# Summary of the method: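 TDP-43-expressing yeast, pregrown in raffinose, seeded at OD600 0.02 in galactose medium with compound for 24 hr at 30 deg C. Growth read by BacTiter-Glo luminescence, so rescue of toxicity appears as activation.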
row,Compound,growth rescue (activation)
1,CN1CCN(S(=O)(=O)c2cccc(C(=O)N3CCc4ccccc43)c2)CC1,inactive: -14.3%
2,O=C(C[n+]1cc(-c2ccccc2)n2c1CCC2)c1cccs1,inactive: 3.98%
3,Cc1ccc(C(=O)NCCCNC(=O)c2ccco2)cc1,inactive: 9.36%
4,Cc1cnc(C(=O)NC(Cc2ccccc2)c2ccccc2)cn1 (configuration not stated),inactive: 7.65%
5,Cc1cc(S(=O)(=O)NCCCN2CCOCC2)c(Cl)cc1Cl,inactive: 6.55%
6,O=C(O)Cc1ccc(C(=O)c2ccccc2F)s1,inactive: 21.8%
7,CCSc1ccccc1C(=O)Nc1ccc(S(=O)(=O)NC(C)=O)cc1,inactive: 1.01%
8,CCCCn1nnnc1SCC(=O)NC1CCCCC1,inactive: -3.22%
9,O=C(CC1COc2ccccc2O1)NCCc1ccccc1 (configuration not stated),inactive: 17.3%
10,COC(=O)c1ccccc1NC(=O)c1cnn2cccnc12,inactive: 17.8%
11,CCCCOc1ccc(C(=O)N2CCN(CC(=O)Nc3ccc(C)cc3)CC2)cc1OC,inactive: 4.59%
12,O=C(NCc1ccc(F)cc1)c1ccc(CS(=O)(=O)Cc2ccc(F)cc2)o1,inactive: 13.2%
13,CC(=O)c1nc(N2C(=O)CC(Cc3ccc(C)cc3)C2=O)sc1C (configuration not stated),inactive: 15.2%
14,COC(=O)c1cc(NC(=O)c2ccccc2F)cc(C(=O)OC)c1,inactive: 0.52%
15,COc1ccccc1OCC(=O)NCCSCc1ccccc1Cl,inactive: 23.1%
16,O=c1cc(O)c2sc(Nc3ccc(Cl)c(F)c3)nc2[nH]1,inactive: 20.4%
17,Cc1ccc(C2=NO[C@@](CC(=O)O)(C(=O)Nc3ccc4c(c3)OCCO4)C2)cc1,inactive: 1.2%
18,CCC(NC(=O)c1cc(COc2c(F)cccc2F)on1)c1ccncc1 (configuration not stated),inactive: -3.17%
19,CCc1nn(CC(=O)N2CCCCC2)c(=O)c2cc3sc(C)cc3n12,inactive: -4.95%
20,CNC(=S)N(Cc1cccs1)Cc1cc2cc(OC)ccc2[nH]c1=O,inactive: 9.5%
21,O=C(c1n[nH]c(=O)c2ccccc12)N1CCN(Cc2ccc3c(c2)OCO3)CC1,inactive: 27.7%
22,COc1ccc(S(=O)(=O)N(C)C)cc1NCC(=O)Nc1cccc(C#N)c1,inactive: 11%

row,Compound,growth rescue (activation)
1,COCCC(=O)N1CCC(Oc2ccc(C(=O)N3C[C@@H](C)O[C@@H](C)C3)cc2)CC1,inactive: -12.7%
2,CCCn1c(=O)c(C(=O)Nc2ncccc2C)c(O)c2ccccc21,inactive: -23.9%
3,Cc1ccc(NC(=O)CC(NCC2CCCO2)C(=O)O)cc1C (configuration not stated),inactive: 4.77%
4,CC(OC(=O)c1ccc2noc(-c3ccccc3)c2c1)C(N)=O (configuration not stated),inactive: 4.58%
5,O=c1oc2ccccc2c(Nc2ccccc2)c1CN1CCCCC1,inactive: -2.73%
6,CCN(CC)c1ccc(NC(=S)NCC2CCCO2)cc1 (configuration not stated),inactive: -5.51%
7,O=C(NC(Cc1c[nH]c2ccccc12)C(=O)O)/C(=C/c1ccco1)NC(=O)c1ccccc1 (configuration not stated),inactive: 2.4%
8,CCc1ccc(/C=N/NC(=O)c2ccccn2)cc1,inactive: 13%
9,CCCC(C)NC(=O)c1ccccc1SC (configuration not stated),inactive: -8.06%
10,C=CCN(CC=C)C(=O)CN1C(=O)NC(Cc2c[nH]c3ccccc23)C1=O (configuration not stated),inactive: -2.86%
11,Cc1cc(C(=O)NP(=O)(N2CCOCC2)N2CCOCC2)c(C)n1-c1ccc(N(C)C)cc1,inactive: 11.2%
12,COC1CCCN(Cc2cn(C)nc2-c2ccc(Oc3ccccc3)cc2)C1 (configuration not stated),inactive: -1.71%
13,O=C(COC(=O)c1cc2ccccc2oc1=O)c1cccc([N+](=O)[O-])c1,inactive: 13.7%
14,Cc1cc(SCC(=O)N(C)C2CCS(=O)(=O)C2)nc2c(C)cccc12 (configuration not stated),inactive: 0.855%
15,C=CCNc1ncnc2c1ncn2[C@H]1CN(Cc2ccccc2)C[C@@H](CO)O1,inactive: -1.44%
16,CCc1ccccc1N(C(=O)c1snc(C(N)=O)c1N)C(C(=O)NCC1CCCO1)c1ccc(OC)c(OC)c1 (configuration not stated),inactive: 1.13%
17,CCOc1cc(NC(=S)NCc2ccco2)c(OCC)cc1NC(=O)CC,inactive: 6.18%
18,CCCNS(=O)(=O)c1ccc(CCC(=O)N2CCN(c3ccc(F)cc3)CC2)cc1,inactive: 15.7%
19,CCC(Oc1ccc(Cl)cc1)C(=O)N1CC(=O)Nc2ccccc21 (configuration not stated),inactive: 3.5%
20,O=C(CSc1nc2nn(-c3ccccc3)c(=O)c-2c2n1CCCCC2)Nc1ccc(F)c(F)c1,inactive: -2.93%
21,CC(C)Nc1nnc(SCC(=O)NCc2ccc3c(c2)OCO3)s1,inactive: 3.72%
22,CC1(C(=O)NS(=O)(=O)C2CC2)CCCN(C(=O)c2cccc(OC(F)(F)F)c2)C1 (configuration not stated),inactive: 1.35%

row,Compound,growth rescue (activation)
1,COC(=O)N=Nc1c(O)n(Cc2ccccc2)c2ccccc12,inactive: -2.83%
2,CCC1CCC(C(=O)NC(C(=O)NCCN2CCOCC2)C(C)C)CC1 (configuration not stated),inactive: 2.23%
3,NC(CO)c1csc(Nc2ccc(C(F)(F)F)cn2)n1 (configuration not stated),inactive: 21.5%
4,Cc1cc(F)ccc1S(=O)(=O)Nc1ccccc1C(=O)Nc1ncn[nH]1,inactive: -9.7%
5,COc1ccccc1CC(=O)NNC(=O)c1cccs1,inactive: -10.5%
6,Cc1cc(=O)[nH]c(N/N=C/c2c(C)oc3ccccc23)n1,inactive: 2.63%
7,O=C(c1ccc(F)cc1)C(CCCCCC(CN1CCOCC1)C(=O)c1ccc(F)cc1)CN1CCOCC1 (configuration not stated),inactive: -8.91%
8,CCc1ccc(NC(=O)CN2C(=O)C(c3ccc(C)cc3)=NC23CCCCC3)cc1,inactive: 18.7%
9,Cc1ccc(SCC(=O)NC(=O)Nc2ccc3c(c2)OCCO3)cc1C,inactive: 5.65%
10,CN(C)C(CNC(=O)c1cc(Br)ccc1Cl)c1ccco1 (configuration not stated),inactive: 6.85%
11,CN(C)c1ccc(NC(=S)NC(=O)/C=C/c2ccco2)cc1,inactive: 16.6%
12,NC(=O)C1(N2CCCCC2)CCN(C(=O)NC2CCCCC2)CC1,inactive: 3.18%
13,CCOc1ccccc1CNC(=O)C1CCN(c2nnc(-n3c(C)ccc3C)s2)CC1,inactive: 6.64%
14,COc1ccc(CC(=O)OCC(=O)Nc2ccc(C(=O)Nc3ccc(OC)cc3)cc2)cc1,inactive: -4.03%
15,CC(=O)c1cccc(N(C(=O)c2ccco2)C(C(=O)NC2CCCC2)c2ccc(N3CCOCC3)cc2)c1 (configuration not stated),inactive: 16.9%
16,COc1cccc(C(C(=O)NC2CCCCC2)N(C(=O)c2csnn2)C2CC2)c1 (configuration not stated),inactive: -5.95%
17,CC(=O)Nc1ccc(S(=O)(=O)N2CCC(NC(=O)C(Cc3cccc(F)c3)NC(C)=O)CC2)cc1 (configuration not stated),inactive: 13.4%
18,CCOc1ccc(C2NC(=O)Cc3cc(OC)c(OC)cc32)cc1 (configuration not stated),inactive: -6.67%
19,Cc1nc(=O)c(-c2ccccc2)c(C)n1CCCCCC(=O)O,inactive: 10.1%
20,CCCc1[nH]n(-c2nc3ccccc3s2)c(=O)c1C=NCCCN(CC)CC,inactive: -1.45%
21,CC(CCc1ccccc1)NC(=O)Cc1ccc([N+](=O)[O-])cc1 (configuration not stated),inactive: 12.1%
22,NS(=O)(=O)c1ccc(NC(=O)CSc2ncn[nH]2)cc1,inactive: -3.11%

row,Compound,growth rescue (activation)
1,COc1ccc(CC(=O)OCc2csc(CC(=O)Nc3ccc(C)cc3)n2)cc1,inactive: 1.64%
2,Cc1nc(-c2ccccc2)sc1C(=O)NN,inactive: 17%
3,Cc1nn(C)cc1[C@@H]1C[C@H]2CN(Cc3cccc(Cl)c3)C(=O)[C@]23CCCN13,inactive: -6.88%
4,CC(C)(O)C#Cc1ccc(CN2CCN(Cc3ccccc3)C(CCO)C2)s1 (configuration not stated),inactive: 4.61%
5,COc1cccc(CNC(=O)C2CCN(c3nnc(-n4c(C)ccc4C)s3)CC2)c1OC,inactive: -2.87%
6,COc1cc(NC(=O)CN2CCN(C(=O)C3CCCO3)CC2)c(OC)cc1Cl (configuration not stated),inactive: 3.97%
7,Cc1ccc(Cl)cc1N(C(=O)c1csnn1)C(C(=O)NC1CCCC1)c1ccco1 (configuration not stated),inactive: 14.1%
8,CCCn1c(=O)c(C(=O)NCc2ccc(OC)c(OC)c2)c(O)c2ccccc21,inactive: 12.7%
9,COc1ccc(S(=O)(=O)N2CCN(CCCOc3ccc(F)cc3)CC2)cc1OC,inactive: -4.28%
10,O=C(c1ccco1)N1N=C2CCCCCC2C1(O)C(F)(F)F (configuration not stated),inactive: 29%
11,Cc1cccn2c(=O)c3cc(C(=O)NC4CCCC4)c(=N)n(C4CCCCC4)c3nc12,inactive: 9.14%
12,CCNC(=S)N1CCN(S(=O)(=O)/C=C/c2ccccc2)CC1,inactive: -13%
13,CCOC(=O)C1CCN(C(=O)CNC(=O)c2nn(-c3ccc(OC)cc3OC)c(=O)c3ccccc23)CC1,inactive: -9.75%
14,CN(C)C(=S)Nc1ccc2ccccc2c1,inactive: 0.382%
15,CCOc1ccc(/C=N/NC2=NCCCCC2)cc1,inactive: -3.53%
16,N#Cc1ccc(C(=O)Nc2ccc(S(=O)(=O)NC3=NCCCCC3)cc2)cc1,inactive: 7.08%
17,S=C(NNc1ccnc2cc(Cl)ccc12)Nc1ccccc1Cl,inactive: 3.52%
18,CC1(C(=O)NCCc2ccccc2)Cc2c(-c3cccc(C(N)=O)c3)ccnc2O1 (configuration not stated),inactive: 9.53%
19,CN(C)c1oc(COc2ccc(F)cc2)nc1C#N,inactive: 31.2%
20,CCOc1ccc(N(CC(=O)N2CCCCC2)S(=O)(=O)c2ccc(Cl)cc2)cc1,inactive: -14.1%
21,Cc1cc(S(=O)(=O)NCc2ccccc2)ccc1OCC(=O)NCc1cccnc1,inactive: 4.68%
22,CCC(Sc1nc2ccccc2o1)C(=O)O (configuration not stated),inactive: -0.0658%

row,Compound,growth rescue (activation)
1,CC(=O)Nc1cccc(-c2ccnc3c2CC(C(=O)Nc2ccc(Cl)cc2)O3)c1 (configuration not stated),inactive: 11.8%
2,O=C1CSC(c2ccncc2)N1Cc1ccccc1 (configuration not stated),inactive: 1.09%
3,COc1ccc(S(=O)(=O)N(C)C)cc1NC(=O)CSc1nnc(-c2cccnc2)o1,inactive: 10.4%
4,COc1cccc(-c2nnn(C/C(N)=N/O)n2)c1,inactive: 4.09%
5,CC(=O)c1ccc(NC(=O)CN2c3cccc4cccc(c34)S2(=O)=O)cc1,inactive: 10.8%
6,Cc1ccc(C)c(Cn2nnc3c(=O)[nH]c(C4CCCN(S(=O)(=O)Cc5ccccc5)C4)nc32)c1 (configuration not stated),inactive: 8.08%
7,CCOC(=O)C1(Cc2ccc(OC)cc2)CCN(C(=O)CC2CCC(=O)N2)CC1 (configuration not stated),inactive: -3.07%
8,Cc1ccc(COc2ccc3c(c2)OCO3)cc1,inactive: 12.3%
9,O=C(O)C1(c2ccccc2)CCN(S(=O)(=O)c2ccc(F)c(F)c2)CC1,inactive: -9.45%
10,COc1ccc(OCc2nnc(SCC(=O)c3ccccc3)o2)cc1,inactive: 32.9%
11,COc1ccc(CC(=O)N/N=C(\C)CC(=O)Nc2ccc(N(C)C)cc2)cc1,inactive: 7.68%
12,COc1ccc2cc(C(=O)C3CCCN(C(=O)CCc4ccccn4)C3)ccc2c1 (configuration not stated),inactive: -0.582%
13,CC(=O)N1CCN(c2ccc(NC(=O)c3ccco3)cc2)CC1,inactive: 8.05%
14,Cc1nn(CCCC(=O)N2CCN(c3ccc(F)cc3)CC2)c(C)c1[N+](=O)[O-],inactive: 29.5%
15,COc1cc(S(=O)(=O)Nc2ccc3cn[nH]c3c2)ccc1Cl,inactive: -2%
16,Cc1ccc(/C=C/C(=O)OCC(=O)NC(C)C)o1,inactive: -4.56%
17,O=C(Nc1ccc(N2CCOCC2)cc1)c1ccc(Br)o1,inactive: 6.62%
18,Cc1cc(C)nc(/N=C(\N)Nc2ccc(S(=O)(=O)O)cc2)n1,inactive: -11.1%
19,NC(=O)COC(=O)CNC(=O)c1cc(Cl)cc([N+](=O)[O-])c1,inactive: 1.02%
